# Measurements from the RNAGym collection of RNA variant scans (doi:10.1073/pnas.2313332121).
# Variants at the floor of the assay are shown more often than the library holds them.
# B1: TPR 5TU (parent)
# chain: GGAUCUUCUCGAUCUAACAAAAAAGACAAAUCUGCCACAAAGCUUGAGAGCAUCUUCGGAUGCAGAGGCGGCAGCCUUCGGUGGCGCGAUAGCGCCAACGUUCUCAACUAUGACACGCAAAACGCGUGCUCCGUUGAAUGGAGUUUAUCAUG
# Variants of: B1
# Experiment: polymerase ribozyme fitness, log enrichment relative to wild type (log ratio); higher = more active; in vitro selection for triplet polymerase activity
# Procedure, shortened: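 Both subunits of a heterodimeric triplet polymerase ribozyme were given their own mutant library, built by PCR and transcribed. Each library was annealed with a biotinylated primer, the partner subunit and triplets, incubated frozen at −7 °C, and its extended constructs gel-excised, captured on streptavidin beads and amplified by RT-PCR, all in one round done in triplicate. Fitness is the logarithm of genotype enrichment relative to wild-type enrichment, with replicates averaged by inverse-variance weighting. That logarithm is base 2, and Illumina-sequenced genotypes needed ≥10 input reads and ≥1 read per output.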
row,Variant,polymerase ribozyme fitness (log ratio)
1,GGAUCUUCUCGAUCUAACUAAAAAGACAAAUCUGCCACAAAGCUUGAAAGCAUCUUCGGAUGCAGAGGCGGCAGCCUUCGGUGGCGCGAUAGCGCCAACGUUCUCAACUAUGACACGCAAAACGCGUGCUCCGUUGAAUGGAGUUUAUCAUG [A19U G48A],-1.05
2,GGAUCUUCUCGAUCUAACUAAAAAGACAAAUCUGCCACAAAGCUUGAGAACAUCUUCGGAUGCAGAGGCGGCAGCCUUCGGUGGCGCGAUAGCGCCAACGUUCUCAACUAUGACACGCAAAACGCGUGCUCCGUUGAAUGGAGUUUAUCAUG [A19U G50A],-1.63
3,GGAUCUUCUCGAUCUAACUAAAAAGACAAAUCUGCCACAAAGCUUGAGAACAUCAUCGGAUGCAGAGGCGGCAGCCUUCGGUAGGGCGAUAGCGCCAACGUUCUCAACUAUGACACGCAAAACGCGUGCUCCGUUGAAUGGAGUUUAUCAUG [A19U G50A U55A G83A C85G],≤ -4.2
4,GGAUCUUCUCGAUCUAACUAAAAAGACAAAUCUGCCACAAAGCUUGAGACCAUCUUCGGAUGCAGAGGAGGCAGCCUUCGGUGGUGCGAUAGCGCCAACGUUCUCAACUCUGACACGCAAAACGCGUGCUCCGUUGAAUGGAGUUUAUCAUG [A19U G50C C69A C85U A110C],≤ -4.2
5,GGAUCUUCUCGAUCUAACUAAAAAGACAAAUCUGCCACAAAGCUUGAGACCAUCUUCGGAUGCAGAGGCGGCAGCCUUCGGUGGCGUGAUAGCGCCAACGUUCUCAACUAUGACACGCAAAACGGGUGCUCCGUUGAAUGGAGUUUAUCAUG [A19U G50C C87U C125G],≤ -4.2
6,GGAUCUUCUCGAUCUAACUAAAAAGACAAAUCUGCCACAAAGCUUGAGAUCAUCUUCCGAUGCAGAGGCGGCAGUCUUCGGUGGCGCGAUAGCGCCAACGUUCUCAACUAUGACACGGAGAACGCGUGCUCCGUUGAAUGAAGUUAAUCAUG [A19U G50U G58C C75U C118G A120G G141A U146A],≤ -4.2
7,GGAUCUUCUCGAUCUAACUAAAAAGACAAAUCUGCCACAAAGCUUGAGAGCAUCUUCGGAUGCAGAGGCAGCAGCCUUCGGUGGCGCGAUAGCGCCAACGUUCUCAACUAUGACACGCAUAACGCGUGCUCCGUUGAAUGGAGUUUAUCAUG [A19U G70A A120U],≤ -4.2
8,GGAUCUUCUCGAUCUAACUAAAAAGACAAAUCUGCCACAAAGCUUGAGAGCAUCUUCGGAUGCAGAGGCAGCAGCCUUCGGAGGCGCGAUAGCGCCAACGUUCUCAACUAUGACACGCAAAACGCGGGCUCCGUUGAAUGGAGUUUAUCAUG [A19U G70A U82A U127G],≤ -4.2
9,GGAUCUUCUCGAUCUAACUAAAAAGACAAAUCUGCCACAAAGCUUGAGAGCAUCUUCGGAUGCAGAGGCGUCAGCCUUAGGUGGUGCGAUAGCGCCAACGUUCUCAACUGUGACACGCAAAACGCGUGCUCCGAUGAAUGGAGUUUAUCAAG [A19U G71U C79A C85U A110G U134A U151A],≤ -4.2
10,GGAUCUUCUCGAUCUAACUAAAAAGACAAAUCUGCCACAAAGCUUGAGAGCAUCUUCGGAUGCAGAGGCGGCAGCCUUCGCUGGUGCGAUAGCGCCAACGUUCUCAACUAUGACACGCAAAACGCGUGCUCCGUUGAAUGGAGUAUAUCAUG [A19U G81C C85U U145A],-0.303
11,GGAUCUUCUCGAUCUAACUAAAAAGACAAAUCUGCCACAAAGCUUGAGAGCAUCUUCGGAUGCAGAGGCGGCAGCCUUCGGUUGCGCGAUAGCGCCAACGUUCUCAACUAUGACACGCAAAACGCGUGCUCCGUUGAAUGGAGUUUAUCAUG [A19U G83U],-0.798
12,GGAUCUUCUCGAUCUAACUAAAAAGACAAAUCUGCCACAAAGCUUGAGAGCAUCUUCGGAUGCAGAGGCGGCAGCCUUCGGUGGCCCGAUAGCGCCAACGUUCUCAACUAUGACACGCAAAACGCGUGCUCCGUUGAAUGGAGUUUAUCAUG [A19U G86C],-2.58
13,GGAUCUUCUCGAUCUAACUAAAAAGACAAAUCUGCCACAAAGCUUGAGAGCAUCUUCGGAUGCAGAGGCGGCAGCCUUCGGUGGCUCGAUAGCGCCAACGUUCUCAACUAUGACACGCAAAACGCGUGCUCCGUUGAAUGGAGUUUAUCAUG [A19U G86U],-1.75
14,GGAUCUUCUCGAUCUAACUAAAAAGACAAAUCUGCCACAAAGCUUGAGAGCAUCUUCGGAUGCAGAGGCGGCAGCCUUCGGUGGCGCGAUAACGCCAACGUUCUAAACUAUGACACGCAAAACGCGUGCUCCGUUGAAUGGAGUUUAUCAUG [A19U G92A C105A],≤ -4.2
15,GGAUCUUCUCGAUCUAACUAAAAAGACAAAUCUGCCACAAAGCUUGAGAGCAUCUUCGGAUGCAGAGGCGGCAGCCUUCGGUGGCGCGAUACCGCCAACGUUCUCAACUAUGACACGCAAAACGCGUGCUCCGUUGAAUGGAGUUUAUCAUG [A19U G92C],-1.68
16,GGAUCUUCUCGAUCUAACUAAAAAGACAAAUCUGCCACAAAGCUUGAGAGCAUCUUCGGAUGCAGAGGCGGCAGCCUUCGGUGGCGCGAUAUCGCCAACGUUCUCAACUAUGACACGCAAAACCCGUGCUCCGUUGAAAGGAGUUUAUCAUG [A19U G92U G124C U139A],≤ -4.2
17,GGAUCUUCUCGAUCUAACUAAAAAGACAAAUCUGCCACAAAGCUUGAGAGCAUCUUCGGAUGCAGAGGCGGCAGCCUUCGGUGGCGCGAUAGCCCCAACGUUCUCAACUAUGACACGCAAAACGCGUGCUCCGUUGAAUGGAGUGUAUCAUG [A19U G94C U145G],-0.324
18,GGAUCUUCUCGAUCUAACUAAAAAGACAAACCUGCCACAAAGCUUGAGAGUAUCUUCGGAUGCAGAGGCGGCAGCCUUCGGUGGCGCGAUAGCGCCAACGUUCUCAACUAUGACACGCAAAACGCGUGCUCCGUUGAAUGGAGUUUAUCAUG [A19U U31C C51U],0.159
19,GGAUCUUCUCGAUCUAACUAAAAAGACAAAGCUGGCACAAAGCUUGAGAGCAUCUUCGGAUGCAGAGGCGGCAGGCUUCGGUCGCGCGAUAGCGCUAACGUUGUCAACUAUGACACGCAAAACGCGUGCUCCGUUGAAUGGAGUUUAUCAUG [A19U U31G C35G C75G G83C C96U C103G],≤ -4.2
